A number of entries come with more than one value. This list holds those alone. An entry can have further records. The records of an entry repeat one measurement (runs, samples, wells, individuals or studies).
Tests used:
Format in all cases: toxicity, cell-based
Fibroblast = test: Multiplex assay against human fibroblast
In short: (§1)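 On a CQ1 microscope at 37°C and 5% CO2, live cells were imaged after compound addition. They had been stained at seeding with Hoechst33342, BioTracker Green Microtubule Cytoskeleton Dye, MitoTracker Red and Annexin V Alexa Fluor 680. CellPathfinder machine-learning gating assigned cells to Hoechst high-intensity objects or normal cells, normal cells to healthy, pyknosed or fragmented nuclei, and pyknosed cells to mitotic or apoptotic. Tubulin, mitochondrial-mass and membrane-permeability phenotypes are per cents of healthy-nucleus cells.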

HEK-293T = test: Multiplex assay against HEK293T; settings: human; in short: as §1
U2OS = test: Multiplex assay against U2OS; settings: human; in short: as §1
[1] = 12 h, 10 µM, compound concentration 10 uM
[2] = 24 h, 10 µM, compound concentration 10 uM
[3] = 48 h, 1 µM, compound concentration 1 uM
[4] = 48 h, 10 µM, compound concentration 10 uM
[5] = 12 h, 1 µM, compound concentration 1 uM
[6] = 24 h, 1 µM, compound concentration 1 uM

N#Cc1c(Oc2cccc(OS(=O)(=O)CCCC(F)(F)F)c2)cccc1C(F)(F)F
Population Membrane Permeable-Phenotype (%) (Fibroblast; [1]): 1% and 13%
Population Fragmented Nuclei (%) (Fibroblast; [2]): 13% and 40%
Population Membrane Permeable-Phenotype (%) (Fibroblast; [2]): 4% and 18%
Population Membrane Permeable-Phenotype (%) (Fibroblast; [3]): 1% and 13%
Population Membrane Permeable-Phenotype (%) (Fibroblast; [4]): 2% and 23%
Population Hoechst High Intensity Objects (%) (HEK-293T; [1]): 10% and 40%
Population Hoechst High Intensity Objects (%) (HEK-293T; [2]): 13% and 47%
Population Hoechst High Intensity Objects (%) (HEK-293T; [4]): 5% and 24%

CC(N)C1CCC(C(=O)Nc2ccncc2)CC1 (stereo not drawn)
Population Apoptotic (%) (Fibroblast; [5]): 5.88% and 17.65%
Population Pyknosed Nuclei (%) (Fibroblast; [5]): 23.08% and 7.33%
Population Pyknosed Nuclei (%) (Fibroblast; [2]): 15.35% and 4.97%
Population Mitochondria Different-Phenotype (%) (Fibroblast; [3]): 12.84% and 2.63%
Population Mitotic Cells (%) (Fibroblast; [3]): 69.23% and 16.67%
Population Mitochondria Different-Phenotype (%) (Fibroblast; [4]): 14.98% and 4.24%
Population Mitochondria Different-Phenotype (%) (HEK-293T; [5]): 29.21% and 7.32%
Population Tubulin-Different-Phenotype (%) (HEK-293T; [5]): 1.87% and 19.51%
Population Apoptotic (%) (HEK-293T; [1]): 3.63% and 16.67%
Population Tubulin-Different-Phenotype (%) (HEK-293T; [1]): 6.29% and 38.3%
Total Cell Count (HEK-293T; [1]): 501 and 158
Total Cell Count (HEK-293T; [6]): 623 and 180
Total Cell Count (HEK-293T; [2]): 730 and 191
Population Tubulin-Different-Phenotype (%) (HEK-293T; [3]): 0.63% and 14.69%
Total Cell Count (HEK-293T; [3]): 1286 and 271
Population Apoptotic (%) (HEK-293T; [4]): 3.11% and 18.64%
Total Cell Count (HEK-293T; [4]): 1515 and 220

Cn1cc(C(=O)OCC2CCN(CCNS(C)(=O)=O)CC2)c2ccccc21
Population Mitotic Cells (%) (U2OS; [2]): 7% and 35%
Population Mitotic Cells (%) (U2OS; [3]): 8% and 42%
Population Fragmented Nuclei (%) (U2OS; [4]): 30% and 9%

C[C@H](NC(=O)CNC(=O)c1cccc(Cl)c1)c1ccccc1
Population Mitotic Cells (%) (U2OS; [2]): 9% and 28%

NC1=NC(=O)/C(=C2\CCNC(=O)c3[nH]c4ccccc4c32)N1
Population Fragmented Nuclei (%) (Fibroblast; [5]): 18.79% and 3.67%
Population Apoptotic (%) (Fibroblast; [1]): 7.02% and 23.08%
Population Apoptotic (%) (Fibroblast; [3]): 12.5% and 44.44%
Population Mitochondria Different-Phenotype (%) (Fibroblast; [3]): 15.66% and 1.37%
Population Healthy Nuclei (%) (HEK-293T; [5]): 62.27% and 19.71%
Population Mitochondria Different-Phenotype (%) (HEK-293T; [5]): 47.46% and 14.81%
Population Tubulin-Different-Phenotype (%) (HEK-293T; [5]): 5.93% and 29.63%
Population Healthy Nuclei (%) (HEK-293T; [1]): 62.42% and 13.99%
Population Tubulin-Different-Phenotype (%) (HEK-293T; [1]): 6.47% and 30%
Total Cell Count (HEK-293T; [6]): 603 and 156
Population Tubulin-Different-Phenotype (%) (HEK-293T; [3]): 0.96% and 27.34%
Total Cell Count (HEK-293T; [3]): 1327 and 200
Population Pyknosed Nuclei (%) (HEK-293T; [4]): 11.96% and 38.97%
Population Tubulin-Different-Phenotype (%) (HEK-293T; [4]): 1.3% and 25.6%
Total Cell Count (HEK-293T; [4]): 813 and 215

O=C(O)C(F)(F)F.O=C1NC(=O)/C(=C/c2c[nH]c(=O)c(-c3ccc(N4CCNCC4)nc3)c2)S1
Population Fragmented Nuclei (%) (Fibroblast; [1]): 17.2% and 5.16%
Population Tubulin-Different-Phenotype (%) (Fibroblast; [1]): 8.55% and 25.73%
Population Mitochondria Different-Phenotype (%) (Fibroblast; [4]): 16.67% and 2.93%
Population Tubulin-Different-Phenotype (%) (Fibroblast; [4]): 1.79% and 17.56%
Population Healthy Nuclei (%) (HEK-293T; [5]): 58.84% and 13.18%
Population Membrane Permeable-Phenotype (%) (HEK-293T; [5]): 0.45% and 11.76%
Population Mitochondria Different-Phenotype (%) (HEK-293T; [5]): 40.36% and 11.76%
Population Tubulin-Different-Phenotype (%) (HEK-293T; [5]): 5.83% and 17.65%
Population Mitochondria Different-Phenotype (%) (HEK-293T; [1]): 34.29% and 9.26%
Population Tubulin-Different-Phenotype (%) (HEK-293T; [1]): 3.33% and 33.33%
Population Pyknosed Nuclei (%) (HEK-293T; [6]): 22.16% and 71.22%
Population Tubulin-Different-Phenotype (%) (HEK-293T; [6]): 16.52% and 2.78%
Total Cell Count (HEK-293T; [6]): 583 and 139
Population Pyknosed Nuclei (%) (HEK-293T; [3]): 11.19% and 35.8%
Population Tubulin-Different-Phenotype (%) (HEK-293T; [3]): 1.51% and 36.79%
Total Cell Count (HEK-293T; [3]): 1386 and 176
Population Tubulin-Different-Phenotype (%) (HEK-293T; [4]): 0.44% and 12.35%
Total Cell Count (HEK-293T; [4]): 1795 and 399

O=c1nc2[nH]c3ccccc3nc-2c(=O)[nH]1 [ALLOXAZINE]
Population Mitochondria Different-Phenotype (%) (Fibroblast; [4]): 3% and 17%

CCCCC[C@H](O)/C=C/[C@H]1[C@H](O)CC(=O)[C@@H]1CCCCCCC(=O)O [ALPROSTADIL]
Population Tubulin-Different-Phenotype (%) (Fibroblast; [5]): 12% and 38%
Population Fragmented Nuclei (%) (Fibroblast; [1]): 7% and 25%
Population Hoechst High Intensity Objects (%) (Fibroblast; [1]): 5% and 16%
Population Hoechst High Intensity Objects (%) (Fibroblast; [2]): 2% and 13%
Population Tubulin-Different-Phenotype (%) (Fibroblast; [2]): 19% and 59%
Population Hoechst High Intensity Objects (%) (Fibroblast; [4]): 2% and 16%
Population Membrane Permeable-Phenotype (%) (Fibroblast; [4]): 1% and 13%

CC(C)[C@H](C(=O)Nc1ccc(C(=O)NO)cc1)c1ccccc1 [AR-42]
Population Mitotic Cells (%) (Fibroblast; [4]): 68.52% and 10.42%
Population Tubulin-Different-Phenotype (%) (Fibroblast; [4]): 2.04% and 14.52%
Population Tubulin-Different-Phenotype (%) (HEK-293T; [5]): 5.71% and 28.57%
Population Healthy Nuclei (%) (HEK-293T; [1]): 53.33% and 17.02%
Population Mitochondria Different-Phenotype (%) (HEK-293T; [1]): 25.69% and 3.12%

COc1cc(NC(=O)CCN2CCC(OC(=O)Nc3ccccc3-c3ccccc3)CC2)c(Cl)cc1CNC[C@H](O)c1ccc(O)c2[nH]c(=O)ccc12 [BATEFENTEROL]
Population Pyknosed Nuclei (%) (Fibroblast; [4]): 22% and 6%
Population Fragmented Nuclei (%) (HEK-293T; [1]): 90% and 5%
Population Healthy Nuclei (%) (HEK-293T; [1]): 0% and 72%
Population Mitochondria Different-Phenotype (%) (HEK-293T; [1]): 0% and 87%
Population Mitotic Cells (%) (HEK-293T; [1]): 0% and 47%
Population Tubulin-Different-Phenotype (%) (HEK-293T; [1]): 0% and 67%
Total Cell Count (HEK-293T; [1]): 16 and 303
Population Apoptotic (%) (HEK-293T; [2]): 0% and 56%
Population Fragmented Nuclei (%) (HEK-293T; [2]): 87% and 6%
Population Healthy Nuclei (%) (HEK-293T; [2]): 12% and 73%
Population Hoechst High Intensity Objects (%) (HEK-293T; [2]): 33% and 7%
Population Mitotic Cells (%) (HEK-293T; [2]): 0% and 43%
Total Cell Count (HEK-293T; [2]): 12 and 357
Population Fragmented Nuclei (%) (HEK-293T; [4]): 58% and 11%
Population Healthy Nuclei (%) (HEK-293T; [4]): 25% and 76%
Population Mitotic Cells (%) (HEK-293T; [4]): 0% and 42%
Total Cell Count (HEK-293T; [4]): 13 and 427

CC(C)(c1ccc(O)cc1)c1ccc(O)cc1 [BISPHENOL A]
Population Apoptotic (%) (Fibroblast; [6]): 9.76% and 40.91%
Population Mitochondria Different-Phenotype (%) (Fibroblast; [4]): 15.93% and 2.78%
Population Healthy Nuclei (%) (HEK-293T; [5]): 58.23% and 14.46%
Population Tubulin-Different-Phenotype (%) (HEK-293T; [5]): 5.49% and 29.17%
Population Healthy Nuclei (%) (HEK-293T; [1]): 58.61% and 18.49%
Population Tubulin-Different-Phenotype (%) (HEK-293T; [1]): 5.67% and 29.63%
Population Pyknosed Nuclei (%) (HEK-293T; [6]): 20.53% and 70.56%
Total Cell Count (HEK-293T; [6]): 566 and 180
Population Tubulin-Different-Phenotype (%) (HEK-293T; [2]): 14.68% and 1.79%
Population Mitochondria Different-Phenotype (%) (HEK-293T; [3]): 10.46% and 32.08%
Population Pyknosed Nuclei (%) (HEK-293T; [3]): 8.97% and 47.26%
Population Tubulin-Different-Phenotype (%) (HEK-293T; [3]): 1.28% and 46.23%
Total Cell Count (HEK-293T; [3]): 1339 and 203
Population Apoptotic (%) (HEK-293T; [4]): 4.35% and 15.28%
Population Tubulin-Different-Phenotype (%) (HEK-293T; [4]): 0.27% and 15.79%
Total Cell Count (HEK-293T; [4]): 1309 and 255

O=C(O)CCC/C=C\CC1C(O)CC(O)C1/C=C/C(O)COc1cccc(Cl)c1 (stereo not drawn) [CLOPROSTENOL]
Population Fragmented Nuclei (%) (U2OS; [1]): 28% and 9%
Population Mitotic Cells (%) (U2OS; [1]): 7% and 54%

Cl.N=C(N)NC(=O)Cc1c(Cl)cccc1Cl [GUANFACINE HYDROCHLORIDE]
Population Tubulin-Different-Phenotype (%) (Fibroblast; [2]): 19% and 58%

CCCCC1=NC2(CCCC2)C(=O)N1Cc1ccc(-c2ccccc2-c2nnn[nH]2)cc1 [IRBESARTAN]
Population Fragmented Nuclei (%) (Fibroblast; [2]): 9% and 36%

COc1ccc2c(c1OCc1ccccc1)C[C@@H](C(=O)O)N(C(=O)C(c1ccccc1)c1ccccc1)C2 [OLODANRIGAN]
Population Mitotic Cells (%) (U2OS; [6]): 12% and 44%
Population Mitotic Cells (%) (U2OS; [2]): 16% and 50%

CC[C@@H](C)Nc1nc(C)nc2c(-c3ccc(OC)nc3C)c(C)nn12 [PEXACERFONT]
Population Membrane Permeable-Phenotype (%) (Fibroblast; [5]): 2% and 15%
Population Membrane Permeable-Phenotype (%) (Fibroblast; [2]): 2% and 20%
Population Membrane Permeable-Phenotype (%) (Fibroblast; [3]): 1% and 26%
Population Mitotic Cells (%) (Fibroblast; [4]): 12% and 47%

Source: ChEMBL document CHEMBL5724801, “EUbOPEN Chemogenomics Library - Multiplex” (2024)
